Measured values taken from PubChem BioAssay AID686970 (National Center for Advancing Translational Sciences (NCATS), 2013).
Out of some 360,000 compounds screened, about 6,000 (1.7%) were called active. The shares of active, inactive and inconclusive entries below differ from those in the screen. Calls follow the shape of the dose curve; as a rule, active = well fitted cell-killing curve with a large enough effect; inconclusive = small, poorly fitted or top-dose-only effect, or effect the other way; inactive = flat fitted curve, though single readings scatter. Potencies of inconclusive entries are left out as doubtful fits.

Assay: qHTS for induction of synthetic lethality in tumor cells producing 2HG: qHTS for the HT-1080-NT fibrosarcoma cell line; also: nearly all actives have a fitted effect of over 55% in size
Settings: HT-1080-NT fibrosarcoma viability, CellTiter-Glo ATP luminescence, 48 h; activity, negative = less viability: at 46.1 µM (top of the series) unless noted
Excerpt: Unbiased genomic sequencing for 22 glioma genomes found recurrent mutation of IDH1 on chromosome 2q33, a gene encoding the cytosolic isoform of IDH1 associated with the tricarboxylic acid cycle (TCA) that catalyzes the oxidative decarboxylation of isocitrate, yielding alpha-ketoglutarate and CO2 via NADP+ to NADPH conversion. Subsequent studies confirmed the recurrent IDH mutations in up to 70% of secondary gliomas and in 10% of AML cases. In addition, the somatic mutation of cancer-associated IDH1 is a point mutation resulting in various amino-acid substituents at Arginine132 (IDH1 R132), a key residue found in the enzyme's active site that when mutated, results in the loss-of-function in metabolizing isocitrate but confers a gain-of-function to produce the oncometabolite 2-hydroxyglutarate (2HG). This in effect defines IDH1 as an oncogene and provides an extraordinary opportunity to discover chemical probes against mutant IDH1 that may translate into much needed new therapies for glioma and AML patients.
This assay aims to perform a synthetic lethal screen for chemical probes specific for 2HG-producing tumor cells using matched paired cell lines (1) HT-1080-NT fibrosarcoma cell line that overproduces 2HG and (2) HT-1080-IDH1KD cell line which has IDH1 expression knocked-down. Desirable compounds are toxic to the NT fibrosarcoma cells but not to the IDH1KD cell line. The data in this AID corresponds to the results of the qHTS against the HT-1080-NT fibrosarcoma cell line.
[1] Dang L, Jin S, Su SM. IDH mutations in glioma and acute myeloid leukemia. Trends of Mol Med. 2010; 16(9): 387-97.
[2] Dang L et al. Cancer-associated IDH1 mutations produce 2-hydroxyglutarate. Nature. 2010; 465(7300):966.
NIH Molecular Libraries Probe Production Centers Network [MLPCN]
NIH Chemical Genomics Center [NCGC]
Assay Submitter (PI): Lenny Dang Ph.D., Agios Pharmaceuticals
Suspensions of trypsinized HT-1080-NT cells were dispensed into white, tissue culture-treated, solid 1536-well plates at 5uL/well (750 cells/well final concentration) in RPMI medium supplemented with 5% FBS. Plates were incubated at 37 degrees C for 2 hours, after which 23 nL of compounds or DMSO were delivered to each well using a pin tool. Plates were then incubated at 37 degrees C for an additional 48 hours. CellTiter-Glo viability reagent (Promega) was dispensed into wells (2.5uL/well) and incubated at room temperature for 10 minutes. The plates were measured on a PerkinElmer ViewLux plate reader for luminescent signal (clear filter, 1 sec exp). DMSO-treated control wells and media-only (no cells) control wells were used to normalize %Activity of identified toxic compounds; DMSO-treated wells corresponded to 0%Activity (100% viability), while media-only controls were used to normalize 100%Activity (0% viability).
Concentration-response curves were fitted to the signals arising from the resulting luminescence. The concentration-effect curves were then classified based on curve quality (r2), response magnitude and degree of measured activity, and compounds were subsequently categorized based on their curve class.
Potency is read from the fitted curve at half-maximal effect; tags tell the direction and shape of the fitted curve.

SMILES	Potency	activity, negative = less viability
Cc1cc(-c2cc(-c3ccc(Cl)cc3)nc(N)c2C#N)co1	inconclusive [cytotoxic, single point]	
COCn1c(-c2ccccc2)nc2ccccc21		inactive: 4.38%
Cc1nn(-c2ccc(Cl)cc2)c(Cl)c1/C=N/NC(=O)c1ccc(NS(=O)(=O)c2cccs2)cc1	inconclusive [cytotoxic, single point]	
CCCCNC(=O)C1(C)CCCCN1C(=O)c1oc2ccccc2c1C (stereo not drawn)		inactive: 7.48%
CCCN1CCN(C(=S)Nc2ccc([N+](=O)[O-])cc2)CC1	inconclusive [cytotoxic, partial curve]	
CCc1nc2ccc(C(=O)Nc3cccc(OC)c3)cn2c1N(C)CCCc1ccccc1	inconclusive [cytotoxic, single point]	
Cc1c(C#N)c(NC(=O)CCl)n(Cc2ccc(F)cc2)c1C	inconclusive [cytotoxic, partial curve]	
Cc1cc(C(=O)CN2C(=O)C(=O)N(Cc3ccco3)C2=O)c(C)n1CCc1ccc(F)cc1	inconclusive [cytotoxic, single point]	
COc1ccc(C2N(c3ccccc3)CCN2c2ccccc2)cc1O		inactive: 3.04%
O=C(Nc1ccc2c(c1)CCCN2C(=O)c1ccccc1)c1ccccc1Br	inconclusive [cytotoxic, partial curve]	
Cc1ccc(S(=O)(=O)n2cc(-c3ccccc3)c3ccccc32)cc1	inconclusive [cytotoxic, partial curve, poor fit]	
O=C(NCc1ccc2c(c1)OCO2)c1nc(S(=O)(=O)Cc2ccccc2F)ncc1Cl	active: 16.4 µM	
COc1cc(NC(=O)Cn2ncc(Cl)c(Cl)c2=O)c(C)cc1[N+](=O)[O-]	active: 7.31 µM	
O=C1c2ccccc2OC2(C=Cc3ccccc3O2)N1Cc1ccccc1 (stereo not drawn)	inconclusive [cytotoxic, partial curve]	
COc1cc(CNC2CCCC2)cc(Cl)c1OCc1ccccc1F	inconclusive [cytotoxic, single point]	
CCN1CCN(CCCNC(=O)c2ccc3c(c2)NC(=O)/C(=C\c2cccc(C)c2)S3)CC1	inconclusive [cytotoxic, single point]	
CCCNC(=O)C1(C)CCCN(C(=O)C(c2ccccc2)c2ccccc2)C1 (stereo not drawn)	inconclusive [rising, partial curve]	
CCOC(=O)N1CCN(C(=O)Cn2ccc3ccccc3c2=O)CC1		inactive: 0.177%
Clc1ccc(CSc2nnc(-c3c[nH]c4ccccc34)o2)cc1	inconclusive [cytotoxic, partial curve]	
C[C@H]1CN([C@@H](C)CO)C(=O)Cc2cc(NC(=O)CCC(F)(F)F)ccc2O[C@H]1CN(C)Cc1ccc(-c2ccccc2)cc1	active: 23.1 µM	
OC(CN(c1ccccc1)c1ccccc1)Cn1cnc2ccccc21 (stereo not drawn)	inconclusive [cytotoxic, single point]	
CN(C)CCCN(Cc1cc2cc3c(cc2[nH]c1=O)OCO3)C(=S)Nc1cccc(Cl)c1	active: 14.6 µM	

SMILES	Potency	activity, negative = less viability
COCCNc1nc(NCc2cccc(OC)c2)c2sc(-c3ccccc3)cc2n1	inconclusive [cytotoxic, single point]	
O=C(NCc1ccc(Cl)cc1)c1ccc(-c2ccc(F)c(F)c2)c2ccoc12		inactive: -5.13%
CC(C)(C)c1ccc(C(=O)NCC(=O)OCC(=O)N2CCCC2)cc1		inactive: 0.0891%
S=c1[nH]nc(COc2ccc(Cl)cc2)n1C1CCCCC1	inconclusive [cytotoxic, single point]	
COc1ccc(-c2nc(-n3c(C)c(C(C)=O)c(C(C)=O)c3C)sc2C)cc1		inactive: 0.0985%
OCCNc1ncnc2c1ncn2[C@H]1CN(Cc2cccs2)C[C@@H](CO)O1		inconclusive: 15.9%
Nc1c(Cl)ncnc1NCCc1ccc(O)cc1	inconclusive [cytotoxic, partial curve]	
O=C(Cn1cnc2ccc(Cl)cc2c1=O)c1cccs1	inconclusive [cytotoxic, single point]	
CC(=O)C1=C(O)C(=O)N(CCCN2CCOCC2)C1c1ccccc1[N+](=O)[O-] (stereo not drawn)	inconclusive [cytotoxic, single point]	
Cn1ncc([N+](=O)[O-])c1C(=O)Nc1ccc(Cl)cc1		inactive: -2.85%
Cc1[nH]n(-c2ccccc2)c(=O)c1N=Nc1nccs1	active: 11.2 µM	
O/N=C(\Cc1cscn1)c1ccc(O)cc1O	inconclusive [cytotoxic, single point]	
Cc1ccc(C)c(COC(=O)c2cc([N+](=O)[O-])ccc2N2CCOCC2)c1	inconclusive [cytotoxic, single point]	
Cc1ccc(C(=O)CC(=O)c2cc(Cl)ccc2O)cc1	inconclusive [cytotoxic, single point]	
Cc1cccc(N(C)S(=O)(=O)c2ccc3c(c2)CCC(=O)N3)c1	inconclusive [cytotoxic, partial curve, poor fit]	
COc1cc(NC(=O)N2CCc3nc(Nc4cc(Cl)cc(Cl)c4)ncc3C2)cc(OC)c1OC	inconclusive [cytotoxic, single point]	
COc1ccc(-c2noc(CSc3nnc(-c4ccncc4)n3-c3ccc(F)cc3)n2)cc1OC	inconclusive [cytotoxic, single point]	
O=C(COc1cccnc1[N+](=O)[O-])N1CCC(Cc2ccccc2)CC1		inactive: -17.1%
CC(C)(C)C1CCc2c(sc(NC(=O)C3CCCO3)c2C(N)=O)C1 (stereo not drawn)	inconclusive [cytotoxic, single point]	
CCOC(=O)c1cnn(-c2ccc(NS(=O)(=O)c3ccc(Cl)cc3)cc2)c1C(F)(F)F	inconclusive [cytotoxic, single point]	
CC(C)c1nc(SCC(=O)N2CC(=O)Nc3ccccc32)c2ccccc2n1	inconclusive [cytotoxic, single point]	
